In the supplement of paper PMC5499739:
Over roughly 16,000 sequences, “Z-score” has its median near -0.37; the highest 2% begin near 3.1. The list shows a part of the results.

What follows are sequences tested on RBM10 RRM1-ZnF-RRM2 (GST-tagged construct) (assay: RNAcompete 7-mer binding Z-score; higher = stronger binding preference).
Method: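 RNAcompete: 20 pmol GST-tagged RBM10 RNA-binding constructs were incubated with a designed RNA pool of about 241,000 sequences up to 41 nt (1.5 nmol) on glutathione beads for 30 min at 4 °C and washed. Bound RNAs were identified by microarray hybridisation. Each RNA 7-mer is scored by a one-sided Z-score of its enrichment, computed over probes that contain the 7-mer within longer pool sequences.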

| Sequence | RNAcompete 7-mer binding Z-score |
| --- | --- |
| GCACCGC | -0.238 |
| UUUACUG | -0.69 |
| UGUUUCG | -0.311 |
| UAGAUAA | 0.0459 |
| GAGCCGC | -0.457 |
| GCAACCC | -0.635 |
| CUGCAAG | -0.493 |
| GUCGUCA | 0.0532 |
| GUAGGCU | 0.629 |
| CCUCGAA | -0.73 |
| GGUAAAA | 1.66 |
| GCCGGUA | -0.0925 |
| GUUCCCC | -0.388 |
| CGCUUGC | -0.81 |
| UAAUAAC | -0.504 |
| CUCACGA | -0.617 |
| AGUCUCG | -0.402 |
| UCAGUAU | -0.293 |
| CCCAGAA | -0.646 |
| UAGUAGG | 1.93 |
| UAGUAUA | -0.205 |
| CCUCGUG | -0.755 |
| UUCCGAA | -0.606 |

| Sequence | RNAcompete 7-mer binding Z-score |
| --- | --- |
| AACGCAU | -0.395 |
| CGAGCUC | -0.526 |
| CUGUUCG | -0.672 |
| UUUGCGC | -0.865 |
| GGGACGA | 2.42 |
| AAGCUAA | -0.26 |
| AGGUCCA | -0.184 |
| UCGGCUG | -0.289 |
| CAAUCUG | -0.628 |
| GGGCUCC | 0.264 |
| CAGUCUC | -0.755 |
| UUCGAGC | -0.57 |
| GCAGGAU | 1.22 |
| CUGCAGU | -0.34 |
| GAGUGAU | 0.731 |
| ACGACCA | -0.362 |
| AUCAAGG | 1.07 |
| UGCCGCU | -0.715 |
| ACGACAC | -0.428 |
| AGAGGGG | 1.94 |
| UCUGCCA | -0.945 |
| GUUGCAU | -0.227 |
| UAACAAG | 0.148 |

| Sequence | RNAcompete 7-mer binding Z-score |
| --- | --- |
| AAAUGCC | -0.544 |
| UGUGAUA | -0.162 |
| CCGAAGG | 0.166 |
| UCAUGAU | -0.231 |
| GUGUGGG | 3.75 |
| AACCGAC | -0.668 |
| GACAAUG | 1.23 |
| GCUGUUC | -0.766 |
| CUCAGCC | -0.846 |
| GCGCACG | 0.148 |
| GCACAUA | -0.355 |
| CAUGAAU | -0.369 |
| UCGCAGA | -0.369 |
| UCCACGA | -0.799 |
| UUCACGA | -0.53 |
| UCAGCCG | -0.861 |
| CACUGUA | -0.373 |
| CGAGGCG | 1.5 |
| GCUCGAA | -0.479 |
| UAAUACG | -0.26 |
| CCAUAUG | -0.541 |
| UGUUAUC | -0.486 |
| GGGGCGU | 2.44 |

| Sequence | RNAcompete 7-mer binding Z-score |
| --- | --- |
| AACGAUG | 0.501 |
| CGUCUUU | -0.613 |
| AGCCGGC | -0.559 |
| AGCCAAA | -0.369 |
| CUUGGUC | -0.821 |
| CAAACAU | -0.533 |
| AUUCGCC | -0.887 |
| CGUGAAA | -0.0707 |
| CGUAGAC | -0.271 |
| CUGAUAC | -0.504 |
| AUCCCCG | -0.734 |
| CAUAUUC | -0.832 |
| UUUGGGA | 1.35 |
| GACAGCU | -0.566 |
| CCCAAGC | -0.628 |
| AUACAUA | -0.238 |
| CUAGGUU | -0.187 |
| AUUGUUG | -0.296 |
| GAGUACG | 0.658 |
| CUUAGUG | -0.264 |
| ACGUGGG | 2.48 |
| UCCCACA | -0.683 |
